Values marked as one replicate rest on one cluster of the flow cell; about a third of the high ones do not repeat.
tested on: ATP; experiment: switch fluorescence ratio, 500 uM ATP over buffer (Cy3 cluster intensity, sum of 5 cycles each) (fold (ratio)); higher = stronger signal-on switching upon ATP binding; sequences stand for … in TCGTCGGCAGCGTCAGATGTGTATAAGAGACAGTTTTTTTTTTTTTTTTTTTTTTTTT…TC; settings: aptamer strand: ATP DNA aptamer (quencher-CACCTGGGGGAGTATTGCGGAGGAAGG + anchor), 100 nM annealed; ATP concentration: 500 uM; one replicate
Summary of the method: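 Between each of five buffer/ATP cycles, the flow-cell was stripped with NaOH and re-annealed. Each cycle imaged Cy3-labelled switching-strand clusters, annealed to 100 nM quencher-labelled ATP aptamer on a modified Illumina MiSeq flow-cell, first in selection buffer and then after 15 min with 500 uM ATP at 22 °C. The fluorescence ratio is summed target-cycle over summed buffer-cycle Cy3 intensity per cluster, averaged per switch-domain sequence, with clusters outside 100-1000 RFU excluded.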
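Note: ATP exposure 15 min at 22 °C before imaging.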

Sequence	switch fluorescence ratio
GGCGCCTCGG	0.969
GGCGCGATTC	3.22
GGCGCGGTTC	1.1
GGCGCTCGCC	0.954
GGCGGAAAAG	0.992
GGCGGAAGGA	1.03
GGCGGAGGAC	0.996
GGCGGCGGCG	0.973
GGCGGGACTC	1.21
GGCGGGACTT	0.998
GGCGGGTTGC	0.989
GGCGGTAGTA	1.05
GGCGGTTGGC	1.02
GGCGGTTTCG	0.99
GGCGTAAGGC	1.03
GGCGTAAGT	0.978
GGCGTAATGG	1.19
GGCGTACCAT	1
GGCGTACTTT	1.07
GGCGTCATAT	0.979
GGCGTCATGA	0.96
GGCGTCGGTG	1.04
GGCGTCTTTT	1
GGCGTGAGTA	1.02
GGCGTGTATC	1.1
GGCTAAGATT	0.994

Sequence	switch fluorescence ratio
GGCTAAGCGG	1.03
GGCTAAGCTA	0.972
GGCTACGTTA	1.17
GGCTACTAAG	1.04
GGCTAGCGAC	1.02
GGCTATACGC	2.1
GGCTATGCG	1
GGCTATGGTT	1.01
GGCTATGTAT	0.96
GGCTATTGGC	1.01
GGCTCAT	1.02
GGCTCCGGG	1
GGCTCCTTAT	1.04
GGCTCGCCCC	1.04
GGCTCTCACC	1.06
GGCTCTCTGT	0.988
GGCTCTGG	1.04
GGCTGAGGAA	1.05
GGCTGCCCTG	1.01
GGCTGCGATT	1.01
GGCTGCGCCC	0.936
GGCTGCTTGT	1.03
GGCTGTTA	0.966
GGCTTAAGCC	0.967
GGCTTATTC	0.994
GGCTTCTTTT	0.972

Sequence	switch fluorescence ratio
GGCTTTCATC	1.04
GGCTTTTCTA	0.942
GGGAAACGCT	1.02
GGGAAAGACA	1.01
GGGAAAGTCT	1.06
GGGAACATTG	0.984
GGGAACTAGG	1.08
GGGAACTCGC	1.17
GGGAATCGCG	0.99
GGGAATTATC	0.987
GGGAATTTAC	1.04
GGGACACGGA	1.1
GGGACAG	0.974
GGGACATCGC	0.998
GGGACCCGTT	1.04
GGGACCGTTA	0.977
GGGACCTAG	0.963
GGGACCTATG	0.967
GGGACCTGAG	1.04
GGGACGGAGG	0.94
GGGACTATGT	1.02
GGGACTCTGC	1.02
GGGACTCTGG	0.943
GGGACTGGTC	1.03
GGGACTTGTA	0.995
GGGACTTTTC	1.02

Sequence	switch fluorescence ratio
GGGAGAGGAT	1
GGGAGAGGG	0.901
GGGAGAGTAG	0.975
GGGAGCCAGA	0.992
GGGAGGACCT	1.06
GGGAGGTGAC	1.01
GGGAGGTTCG	1.11
GGGAGTCTGA	1.01
GGGAGTGCCT	1.02
GGGAGTTCTG	0.997
GGGAGTTGTG	0.93
GGGATAGCAG	0.986
GGGATATTCT	1.21
GGGATCGCCA	1
GGGATCTGGA	1.07
GGGATTACCT	1.08
GGGATTGTCA	1.01
GGGCAAAACG	0.986
GGGCAACAGT	1
GGGCAAGAGA	1.06
GGGCACGACG	0.986
GGGCACGGGT	0.975
GGGCAGATA	1.01
GGGCAGGT	1.03
GGGCATGGCA	1.01
GGGCATTTAA	0.978

Sequence	switch fluorescence ratio
GGGCATTTGA	1.04
GGGCCAATAG	1.01
GGGCCACTAG	1.02
GGGCCATGAT	0.998
GGGCCCGTTA	1.03
GGGCCGGCCG	1.01
GGGCCGGGGA	1.02
GGGCCGTAT	1.05
GGGCCTTGGA	1.04
GGGCCTTGTG	0.951
GGGCGATATT	1.01
GGGCGATTAG	1.06
GGGCGCAGA	1.01
GGGCGCCAAG	0.977
GGGCGCGTGA	1.23
GGGCGTAAAT	0.998
GGGCGTAACG	0.98
GGGCGTAGCG	1.07
GGGCGTTGCA	1.01
GGGCGTTTAT	0.992
GGGCTAAGCC	0.978
GGGCTACCTT	1
GGGCTAGCGA	0.958
GGGCTATCGA	0.982
GGGCTATCGT	1.08
GGGCTATTCG	0.982

Sequence	switch fluorescence ratio
GGGCTCAGCT	0.993
GGGCTCTATA	1.06
GGGCTGCAAG	1.01
GGGCTGGGCG	1.07
GGGCTTCGCG	0.978
GGGCTTCGGC	0.992
GGGCTTTGTT	1.03
GGGGAAGTGT	1
GGGGAATATA	0.996
GGGGACGAGA	1.01
GGGGACGCTA	1.06
GGGGAGCACT	1.09
GGGGAGCCAT	1.02
GGGGAGTCCG	0.927
GGGGATATAG	1.03
GGGGATGCCG	1.09
GGGGATGGT	1
GGGGCAGCGC	0.991
GGGGCAGTTT	0.987
GGGGCATTG	0.968
GGGGCCAGGC	1.04
GGGGCCGCTC	1.03
GGGGCCTGTA	0.941
GGGGCCTTGT	0.993
GGGGCGAAAA	0.993
GGGGCGAGTA	0.991

Sequence	switch fluorescence ratio
GGGGCGCCTT	1.01
GGGGCGTGCC	0.983
GGGGCTCAGT	0.942
GGGGGAACAT	1.07
GGGGGACGGA	1.04
GGGGGCACC	1.01
GGGGGCGCTT	1.03
GGGGGGACCA	0.978
GGGGGGCAA	1.09
GGGGGTCACC	0.979
GGGGGTCAGA	1.02
GGGGGTTCTG	0.941
GGGGGTTT	0.962
GGGGTACTAT	1
GGGGTCAAGT	0.989
GGGGTCACCC	1.03
GGGGTGACT	1.04
GGGGTGCTGA	1
GGGGTGGCTC	0.994
GGGGTTAAT	1.01
GGGGTTAGAT	1
GGGGTTTCTA	1.02
GGGTAATAGC	1.02
GGGTAATGAA	1.02
GGGTACCCTT	1.02
GGGTACCGGC	1.03

Sequence	switch fluorescence ratio
GGGTAGGTTG	0.992
GGGTAGTGCT	1
GGGTATAAAG	0.985
GGGTATAATC	0.96
GGGTATAGAG	1.01
GGGTATATAT	1.02
GGGTATATTC	0.954
GGGTATCCAG	0.985
GGGTATTGAA	0.956
GGGTCAATGT	1.02
GGGTCAGAC	1
GGGTCAGCCA	0.993
GGGTCATATA	0.973
GGGTCATCGC	1.01
GGGTCGCTGT	0.952
GGGTCGTGGA	1
GGGTCTAGAC	0.979
GGGTCTATCC	1.01
GGGTCTCCTT	1.09

— the supplement of paper PMC10126150
